Assay results published in the RNAGym collection of RNA variant scans (doi:10.1073/pnas.2313332121).
This sample is rich in variants without activity.

B1: TPR 5TU (parent)
chain: GGAUCUUCUCGAUCUAACAAAAAAGACAAAUCUGCCACAAAGCUUGAGAGCAUCUUCGGAUGCAGAGGCGGCAGCCUUCGGUGGCGCGAUAGCGCCAACGUUCUCAACUAUGACACGCAAAACGCGUGCUCCGUUGAAUGGAGUUUAUCAUG

Variants of: B1
Experiment: polymerase ribozyme fitness, log enrichment relative to wild type (log ratio); higher = more active; in vitro selection for triplet polymerase activity
Summary of the method: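 Frozen incubation at −7 °C formed the core of a single, triplicate in vitro selection round applied to PCR-built, transcribed mutant libraries of each subunit of a heterodimeric triplet polymerase ribozyme. Extended constructs were gel-excised, captured with streptavidin beads and amplified by RT-PCR, and input and output libraries were Illumina-sequenced with a filter of ≥10 input reads and ≥1 read per output. Fitness is the logarithm of genotype enrichment relative to wild-type enrichment, with inverse-variance-weighted replicate averaging, and the logarithm is base 2.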

Point of comparison: GGAUCUUCUCGAUCUAACAAAAAAGACAAAUCUGCCACAAAGCUUGAGAGCAUCUUCGGAUGCAGAGGCGGCAGCCUUCGGUGGCGCGAUAACGACAACGUUCUCAACUAUGACACGCAAAACGGGUGCUCCGUUGAAUGGAGUUUAUCAUG, “polymerase ribozyme fitness (log ratio)” value -3.82. Against it:
- GGAUCUUCUCGAUCUAACAAAAAAGACAAAUCUGCCACAAAGCUUGAGAGCAUCUUCGGAUGCAGAGGCGGCAGCCUUCGGUGGCGCGAUUGCGCCAACGUUCUCAACUAUGACACGGAAAACGCGUGCUCCGUUGAAUGCAGUUUAUCAUG — within 0.2 log units, -3.94
- GGAUCUUCUCGAUCUAACAAAAAAGACAAAUCUGCCACAAAGCUUGAGAGCAUCUUCGGAUGCAGAGGCGGCAGCCUUCGGUGGCGCGAUAACGCCAACGUUCUCAACUAUGACACGCAAAACGCGUGCUCCGUUGAAUGGAGUUUAUCAUG — higher, -2.51
- GGAUCUUCUCGAUCUAACAAAAAAGACAAAUCUGCCACAAAGCUUGAGAGCAUCUUCGGAUGCAGAGGCGGCAGCCUUCGGUGGCGCGAUAACGACAACGUUCUCAACUUUGACACGCAAAACGCGUGCUCCGUUGAAUGGAGUUUAUCAUG — lower, ≤ -4.2
- GGAUCUUCUCGAUCUAACAAAAAAGACAAAUCUGCCACAAAGCUUGAGAGCAUCUUCGGAUGCAGAGGCGGCAGCCUUCGGUGGCGCGAUAACGCCAACGUUCUCCACUAGGACACGCAAAACGCGUGCUCCGUUAAAUGGAGUUUAUCAUG — lower, ≤ -4.2
- GGAUCUUCUCGAUCUAACAAAAAAGACAAAUCUGCCACAAAGCUUGAGAGCAUCUUCGGAUGCAGAGGCGGCAGCCUUCGGUGGCGCGAUUGCGCCAACGUUCUCAACUAUGACACGCAAAACGCGUGCUCCGGUGUAUGGAGUUUAUCAUG — lower, ≤ -4.2
- GGAUCUUCUCGAUCUAACAAAAAAGACAAAUCUGCCACAAAGCUUGAGAGCAUCUUCGGAUGCAGAGGCGGCAGCCUUCGGUGGCGCGAUAACGCCAACGUUCUCAACUAUGACAAGCAAAACGCGUGCUCCGUUGAAUGAAGUUUAUCAUG — lower, ≤ -4.2
- GGAUCUUCUCGAUCUAACAAAAAAGACAAAUCUGCCACAAAGCUUGAGAGCAUCUUCGGAUGCAGAGGCGGCAGCCUUCGGUGGCGCGAUUGCGCCAACGUUCUCAACUAUGACACGCAAAACGCGUGCUCCGUUGAAUGGAGUUUAACAUG — lower, ≤ -4.2
- GGAUCUUCUCGAUCUAACAAAAAAGACAAAUCUGCCACAAAGCUUGAGAGCAUCUUCGGAUGCAGAGGCGGCAGCCUUCGGUGGCGCGAUUGCGCCAACGUUCUCAACUAUGACACGCAAAACGCGUGCUCCGUUGAAUGGAGUUUAGCAUG — lower, ≤ -4.2
- GGAUCUUCUCGAUCUAACAAAAAAGACAAAUCUGCCACAAAGCUUGAGAGCAUCUUCGGAUGCAGAGGCGGCAGCCUUCGGUGGCGCGAUUGCGCCAACGUUCUCAACAAUGACACGCAAAACGCGAGCUCCGUUGAAUGGAGUUUAUCAUG — lower, ≤ -4.2
- GGAUCUUCUCGAUCUAACAAAAAAGACAAAUCUGCCACAAAGCUUGAGAGCAUCUUCGGAUGCAGAGGCGGCAGCCUUCGGUGGCGCGAUUGCGCCAACGUUCUCAACUAUGACACGCAAAACGCGUGCUCCGUUGAAACGACUUUAUCAUG — lower, ≤ -4.2
- GGAUCUUCUCGAUCUAACAAAAAAGACAAAUCUGCCACAAAGCUUGAGAGCAUCUUCGGAUGCAGAGGCGGCAGCCUUCGGUGGCGCGAUAAGGCCAACGUUGUCAACUAUGACAAGCAAAACGCGUGCUCCGUUGAACGGAGUUUAUCAUG — lower, ≤ -4.2
- GGAUCUUCUCGAUCUAACAAAAAAGACAAAUCUGCCACAAAGCUUGAGAGCAUCUUCGGAUGCAGAGGCGGCAGCCUUCGGUGGCGCGAUUGCGCCAACGUUCUCAACUAUGACAUGCAAAACGCGUGCUCCGUUGAAUGGAGUUUAUCAUG — lower, ≤ -4.2
- GGAUCUUCUCGAUCUAACAAAAAAGACAAAUCUGCCACAAAGCUUGAGAGCAUCUUCGGAUGCAGAGGCGGCAGCCUUCGGUGGCGCGAUUGCGCCAACGUUCUCAACUAUGACACGCAAAACGCGUUCUCCGUUGAAUGGAGUUUAUCAUG — lower, ≤ -4.2
- GGAUCUUCUCGAUCUAACAAAAAAGACAAAUCUGCCACAAAGCUUGAGAGCAUCUUCGGAUGCAGAGGCGGCAGCCUUCGGUGGCGCGAUAACGCCAACGUUUUCAACUAUGACACGCAAAACGCUUGCUCCGUUGAAUGGAGUUUAUAUUG — lower, ≤ -4.2
- GGAUCUUCUCGAUCUAACAAAAAAGACAAAUCUGCCACAAAGCUUGAGAGCAUCUUCGGAUGCAGAGGCGGCAGCCUUCGGUGGCGCGAUAACGCAAACGUUGUUAGCUAUGACACGCGAAACGUGUGCUCCGUUGAAUGGAGUUUAUAAUG — lower, ≤ -4.2
- GGAUCUUCUCGAUCUAACAAAAAAGACAAAUCUGCCACAAAGCUUGAGAGCAUCUUCGGAUGCAGAGGCGGCAGCCUUCGGUGGCGCGAUUGCGCCAACGUUCUCAACUAUGACACGCAAAACGCGUGCUCCGUUGAAUGGAGUGUAUCAUG — lower, ≤ -4.2
- GGAUCUUCUCGAUCUAACAAAAAAGACAAAUCUGCCACAAAGCUUGAGAGCAUCUUCGGAUGCAGAGGCGGCAGCCUUCGGUGGCGCGAUUGCGCCAACGUUCUCAACUAUGACACGCAAAAAGCGUGCUCCGUUGAAUGGAGUUUAUCAUG — lower, ≤ -4.2
- GGAUCUUCUCGAUCUAACAAAAAAGACAAAUCUGCCACAAAGCUUGAGAGCAUCUUCGGAUGCAGAGGCGGCAGCCUUCGGUGGCGCGAUAACGCUAACGUUCUCACCUAUGACACGCAAAACGCGUGCUCCGUUGAAUGGAGUUUAUCAUG — lower, ≤ -4.2
- GGAUCUUCUCGAUCUAACAAAAAAGACAAAUCUGCCACAAAGCUUGAGAGCAUCUUCGGAUGCAGAGGCGGCAGCCUUCGGUGGCGCGAUAACGCCAACGUUCUCAACUUUGACACGCAAAACGCGUGCUACGUUGAAUGGAGUUUAACAUG — lower, ≤ -4.2
- GGAUCUUCUCGAUCUAACAAAAAAGACAAAUCUGCCACAAAGCUUGAGAGCAUCUUCGGAUGCAGAGGCGGCAGCCUUCGGUGGCGCGAUAAUGCUAACGUUCUCAACUAUGACACGCAAAACGCGUGCUCCGUUGAAUGGAGUUUAUCAUG — lower, ≤ -4.2
- GGAUCUUCUCGAUCUAACAAAAAAGACAAAUCUGCCACAAAGCUUGAGAGCAUCUUCGGAUGCAGAGGCGGCAGCCUUCGGUGGCGCGAUAACGCCAACGUUCUCAACUAUGACAUGCAAAACGUGUGCUCCGCUGAAUGGAGUUUAUCAUG — lower, ≤ -4.2
- GGAUCUUCUCGAUCUAACAAAAAAGACAAAUCUGCCACAAAGCUUGAGAGCAUCUUCGGAUGCAGAGGCGGCAGCCUUCGGUGGCGCGAUAACGCCAACGUUCUCAACUAUGCCACGCAAAACGCGUGCUCCGUUGAAUGGAGUUUAUCAUG — lower, -4.16
- GGAUCUUCUCGAUCUAACAAAAAAGACAAAUCUGCCACAAAGCUUGAGAGCAUCUUCGGAUGCAGAGGCGGCAGCCUUCGGUGGCGCGAUAACGCCAACCUUCUCAACUAUGACACGCAAAACGCGUGCUCCGUUGAAUGGAGUUUAUCAUG — lower, -4.07
- GGAUCUUCUCGAUCUAACAAAAAAGACAAAUCUGCCACAAAGCUUGAGAGCAUCUUCGGAUGCAGAGGCGGCAGCCUUCGGUGGCGCGAUAACUCGAACGUCCUCAACUAUGACACGCAAAACGCGUGCUCCGUUGAAUGGAGUUUAUCAUG — lower, ≤ -4.2
- GGAUCUUCUCGAUCUAACAAAAAAGACAAAUCUGCCACAAAGCUUGAGAGCAUCUUCGGAUGCAGAGGCGGCAGCCUUCGGUGGCGCGAUUGCGCCAACGUUCUCAACUAUGACACGCAAAACGCGUGCUCCGUUGAAUGGAAUUUAUCAUG — lower, ≤ -4.2
- GGAUCUUCUCGAUCUAACAAAAAAGACAAAUCUGCCACAAAGCUUGAGAGCAUCUUCGGAUGCAGAGGCGGCAGCCUUCGGUGGCGCGAUAACGCGAACGUUCUCAACUAUGACACGCAAAACGCGUGCUCCGUUGAAUGGAGUUUAUCAUG — lower, ≤ -4.2
- GGAUCUUCUCGAUCUAACAAAAAAGACAAAUCUGCCACAAAGCUUGAGAGCAUCUUCGGAUGCAGAGGCGGCAGCCUUCGGUGGCGCGAUAACGCCGACGUUCUCAACUAUGACACGCAAAUCGCGUGCUCCGUUGAAUGGAGUUUACCAUG — within 0.2 log units, -3.63
- GGAUCUUCUCGAUCUAACAAAAAAGACAAAUCUGCCACAAAGCUUGAGAGCAUCUUCGGAUGCAGAGGCGGCAGCCUUCGGUGGCGCGAUUGCGCCAACGUUCUCAACGAUGACACGCAAAACGCGUGCUCCGUUGAAUGUAGUUUAUCAUG — lower, ≤ -4.2
- GGAUCUUCUCGAUCUAACAAAAAAGACAAAUCUGCCACAAAGCUUGAGAGCAUCUUCGGAUGCAGAGGCGGCAGCCUUCGGUGGCGCGAUAACGCCAACGUUCUAAACUAUGACACGCAAAACGCGUGCUCCGUUGAAUGGAGUUUAUCAUG — higher, -3.36
- GGAUCUUCUCGAUCUAACAAAAAAGACAAAUCUGCCACAAAGCUUGAGAGCAUCUUCGGAUGCAGAGGCGGCAGCCUUCGGUGGCGCGAUUGCGCCAACGUUCUCAACUAGGACACGCAAAACGCGUGCUCCGUUGAAUGGAGUUUAUCAUG — lower, ≤ -4.2
- GGAUCUUCUCGAUCUAACAAAAAAGACAAAUCUGCCACAAAGCUUGAGAGCAUCUUCGGAUGCAGAGGCGGCAGCCUUCGGUGGCGCGAUAAAGCCAACGUUCUUAACUAUGACCCGCAAAACACGUGCUCCGUUGAAUGGAGAUUAUCAUG — lower, ≤ -4.2
- GGAUCUUCUCGAUCUAACAAAAAAGACAAAUCUGCCACAAAGCUUGAGAGCAUCUUCGGAUGCAGAGGCGGCAGCCUUCGGUGGCGCGAUAACGCCAACGUUCUCAACUAUGACACGCAAAAAGCUUGCUCCGUUGAAUGGAGUUUAACAUG — lower, ≤ -4.2
- GGAUCUUCUCGAUCUAACAAAAAAGACAAAUCUGCCACAAAGCUUGAGAGCAUCUUCGGAUGCAGAGGCGGCAGCCUUCGGUGGCGCGAUAACGCCGAAGUUCUCAACUAUGACACGCAAAACGCGUGCUCCGUUGAAUGGAGUUUAUACUG — lower, ≤ -4.2
- GGAUCUUCUCGAUCUAACAAAAAAGACAAAUCUGCCACAAAGCUUGAGAGCAUCUUCGGAUGCAGAGGCGGCAGCCUUCGGUGGCGCGAUUGCGCCAACGUUCUCAACUAUGACACGCAAAACGCGUGCUGCGUUGAAUGGAGUUUAUCAUG — lower, ≤ -4.2
- GGAUCUUCUCGAUCUAACAAAAAAGACAAAUCUGCCACAAAGCUUGAGAGCAUCUUCGGAUGCAGAGGCGGCAGCCUUCGGUGGCGCGAUUGCGCCAACGUUCUCAACUAUGACACGCAAAACGCGUGCACCGUUGAAUGGAGUUUAUCAUG — lower, ≤ -4.2
- GGAUCUUCUCGAUCUAACAAAAAAGACAAAUCUGCCACAAAGCUUGAGAGCAUCUUCGGAUGCAGAGGCGGCAGCCUUCGGUGGCGCGAUAACGCCAACGUUCUCAACUAUGACACGCAAAAAGCGUGCUCCGGUGAAUGGAGUUUAUCAUG — lower, ≤ -4.2
- GGAUCUUCUCGAUCUAACAAAAAAGACAAAUCUGCCACAAAGCUUGAGAGCAUCUUCGGAUGCAGAGGCGGCAGCCUUCGGUGGCGCGAUUGCGCCAACGUUCUCAACUAUGACACGCAAAACGCGUGCUCCGUUGAAUGGAGUUUAUCAGG — lower, ≤ -4.2
